Results as given in the supplement of paper PMC8047034.
Counter-ions that a name gives are not always drawn. The list shows a part of the results. Many values rest on one well or one pass, so single values are uncertain.

What was measured:
[1] = tested on: OVCAR4; test: log2 surviving fraction (library drug vs vehicle, or drug + carboplatin vs carboplatin alone; relative to plate median); ovarian cancer lines: OVCAR4 is platinum-sensitive and Ov4Carbo platinum-resistant; higher = more cell survival; details: library drug concentration 10 µM, 7 days
[2] = tested on: Ov4Carbo; test: as above; details: library drug concentration 10 µM, 7 days

Row | Compound | log2 surviving fraction ([1]; carboplatin co-treatment 0 µM) | log2 surviving fraction ([1]; carboplatin co-treatment 5 µM) | log2 surviving fraction ([2]; carboplatin co-treatment 0 µM) | log2 surviving fraction ([2]; carboplatin co-treatment 5 µM)
1 | CC(C)NCC(O)c1cc(O)cc(O)c1 (stereo unspecified) [Metaproterenol Sulfate] | 0.995 | -0.625 | 0.0638 | 0.222
2 | O=C(CCCN1CC=C(n2c(=O)[nH]c3ccccc32)CC1)c1ccc(F)cc1 [Droperidol] | 0.329 | -1.36 | -0.0853 | 0.728
3 | COCCCC/C(=N\OCCN)c1ccc(C(F)(F)F)cc1 [Fluvoxamine maleate] | -2.48 | -0.827 | -1.95 | -2.82
4 | Nc1nc(=O)c2c([nH]1)NC[C@H](CNc1ccc(C(=O)N[C@@H](CCC(=O)O)C(=O)O)cc1)N2C=O [Calcium levofolinate (Calcium Folinate)] | 0.303 | 0.196 | 0.818 | 0.297
5 | C[C@H]1O[C@@H](n2cc(F)c(=O)[nH]c2=O)[C@H](O)[C@@H]1O [Doxifluridine] | 0.422 | -0.109 | -0.369 | -0.222
6 | CCc1c2c(nc3ccc(OC(=O)N4CCC(N5CCCCC5)CC4)cc13)-c1cc3c(c(=O)n1C2)COC(=O)[C@]3(O)CC [Irinotecan HCl Trihydrate (Campto)] | -8.27 | -6.75 | -7.11 | -6.73
7 | CC1=C(CC(=O)O)c2cc(F)ccc2/C1=C\c1ccc([S+](C)[O-])cc1 (stereo unspecified) [Sulindac (Clinoril)] | 0.0404 | 0.935 | 0.471 | -1.26
8 | CC(C(=O)O)c1ccc(-c2ccccc2)c(F)c1 (stereo unspecified) [Flurbiprofen (Ansaid)] | 0.571 | 0.0382 | 0.414 | -0.101
9 | CC(C)c1c(C(=O)Nc2ccccc2)c(-c2ccccc2)c(-c2ccc(F)cc2)n1CC[C@@H](O)C[C@@H](O)CC(=O)O [Atorvastatin calcium (Lipitor)] | -3.03 | -1.85 | -1.45 | -2.22
